Measurements taken from US20240207427A1, “SELECTIVE DRUG RELEASE FROM INTERNALIZED CONJUGATES OF BIOLOGICALLY ACTIVE COMPOUNDS” (priority 2021, published 2024).

Key:
Set-up in all cases: species or system SCID or nude mice
[1] = tested on: Del-brentuximab vedotin resistant (DELBVR) xenograft; test: In vivo xenograft model, DELBVR; details: single dose 0.3 or 0.9 mg/kg, FIG. 25A-C
Procedure: (§1) All experiments were conducted in concordance with the Animal Care and Use Committee in a facility fully accredited by the Association for Assessment and Accreditation of Laboratory Animal Care. Efficacy experiments were conducted in the L428, KMH2, Karpas/Karpas-BVR, DelBVR, and Caki-1 xenografts models. Tumor cells, as a cell suspension, were implanted sub-cutaneous in immune-compromised SCID or nude mice. Upon tumor engraftment, mice were randomized to study groups (5 mice per group) when the average tumor volume reached about 100 mm3. The ADC or controls were dosed once via intraperitoneal injection. The average number of drug-linker attached to an antibody is indicated in the parenthesis next to the ADC (also referred to herein as Drug-Antibody Ratio (DAR) number, e.g., DAR4, DAR8, etc.). Tumor volume as a function of time was determined using the formula (L×W2)/2. Animals were euthanized when tumor volumes reached 750 mm3. Mice showing durable regressions were terminated after 10-12 weeks post implant.
Animals were implanted with Del-brentuximab vedotin resistant (DELBVR) cells. […] Animals were evaluated for tumor size and in-life signs during the course of the study.

L428 xenograft = test: In vivo xenograft model, L428; details: L428, single dose 2 or 6 mg/kg intraperitoneal, FIGS. 24A and 24B
Procedure: as §1
Animals were implanted with L428 cells. […] Animals were evaluated for tumor size and in-life signs during the course of the study.

[2] = tested on: 1:1 mixture of CD30+ Karpas299 and CD30- Karpas299-BVR cells xenograft; test: In vivo xenograft model, Karpas299/Karpas299-BVR 1:1; details: single dose 0.5 and 1.5 mg/kg, FIG. 26
Procedure: as §1
Animals were implanted with a 1:1 mixture of CD30+ Karpas299 and CD30-Karpas299-brentuximab vedotin resistant (Karpas299-BVR) cells. […] Animals were evaluated for tumor size and in-life signs during the course of the study.

Molecule | in vivo anti-tumor activity [1] | in vivo anti-tumor activity (L428 xenograft) | in vivo anti-tumor activity [2]
cAC10-Compound 43(8) (conjugate, chains of the INN, looked up, Compound 43 payload, DAR 8) heavy: QIQLQQSGPEVVKPGASVKISCKASGYTFTDYYITWVKQKPGQGLEWIGWIYPGSGNTKYNEKFKGKATLTVDTSSSTAFMQLSSLTSEDTAVYFCANYGNYWFAYWGQGTQVTVSA[human IgG1 constant region left out] light: DIVLTQSPASLAVSLGQRATISCKASQSVDFDGDSYMNWYQQKPGQPPKVLIYAASNLESGIPARFSGSGSGTDFTLNIHPVEEEDAATYYCQQSNEDPWTFGGGTKLEIKRTVAAPSVFIFPPSDEQLKSGTASVVCLLNNFYPREAKVQWKVDNALQSGNSQESVTEQDSKDSTYSLSSTLTLSKADYEKHKVYACEVTHQGLSSPVTKSFNRGEC | displayed in vivo anti-tumor activities | displayed in vivo anti-tumor activities | displayed in vivo anti-tumor activities
cAC10-Compound 43a(8) (conjugate, chains of the INN, looked up, Compound 43a payload, DAR 8) heavy: QIQLQQSGPEVVKPGASVKISCKASGYTFTDYYITWVKQKPGQGLEWIGWIYPGSGNTKYNEKFKGKATLTVDTSSSTAFMQLSSLTSEDTAVYFCANYGNYWFAYWGQGTQVTVSA[human IgG1 constant region left out] light: DIVLTQSPASLAVSLGQRATISCKASQSVDFDGDSYMNWYQQKPGQPPKVLIYAASNLESGIPARFSGSGSGTDFTLNIHPVEEEDAATYYCQQSNEDPWTFGGGTKLEIKRTVAAPSVFIFPPSDEQLKSGTASVVCLLNNFYPREAKVQWKVDNALQSGNSQESVTEQDSKDSTYSLSSTLTLSKADYEKHKVYACEVTHQGLSSPVTKSFNRGEC | displayed in vivo anti-tumor activities | displayed in vivo anti-tumor activities | –
cAC10-Compound 43b(8) (conjugate, chains of the INN, looked up, Compound 43b payload, DAR 8) heavy: QIQLQQSGPEVVKPGASVKISCKASGYTFTDYYITWVKQKPGQGLEWIGWIYPGSGNTKYNEKFKGKATLTVDTSSSTAFMQLSSLTSEDTAVYFCANYGNYWFAYWGQGTQVTVSA[human IgG1 constant region left out] light: DIVLTQSPASLAVSLGQRATISCKASQSVDFDGDSYMNWYQQKPGQPPKVLIYAASNLESGIPARFSGSGSGTDFTLNIHPVEEEDAATYYCQQSNEDPWTFGGGTKLEIKRTVAAPSVFIFPPSDEQLKSGTASVVCLLNNFYPREAKVQWKVDNALQSGNSQESVTEQDSKDSTYSLSSTLTLSKADYEKHKVYACEVTHQGLSSPVTKSFNRGEC | displayed in vivo anti-tumor activities | displayed in vivo anti-tumor activities | –
